According to patent publication US20100227313A1, “Methods and Compositions for Determining Altered Susceptibility of HIV-1 to Protease Inhibitor Treatment” (priority 2007, published 2010):
The source gives many values for each of these; only a part stands here.

Tested on: HIV-1
Experiment: Resistance test vector (PHENOSENSE) phenotypic susceptibility assay, fold change in IC50, correlated with genotype (Fisher's Exact test, odds ratio)
Assay type: cell-based, human immunodeficiency virus type 1
Description: See Petropoulos et al., 2000, Antimicrob. Agents Chemother. 44:920-928; U.S. Pat. Nos. 5,837,464 and 6,242,187. PHENOSENSE™ is a phenotypic assay that achieves the benefits of phenotypic testing and overcomes the drawbacks of previous assays.
PHENOSENSE™ can obtain results with only one round of viral replication, thereby avoiding selection of subpopulations of virus that can occur during preparation of viral stocks required for assays that rely on fully infectious virus.
A resistance test vector (“RTV”) can then be constructed by incorporating the amplified viral gene sequences into a replication defective viral vector by using any method known in the art of incorporating gene sequences into a vector. In one embodiment, restrictions enzymes and conventional cloning methods are used. See Sambrook et al., 2001, Molecular Cloning: A Laboratory Manual, Cold Spring Harbor Laboratory, 3rd ed., NY; and Ausubel et al., 1989, Current Protocols in Molecular Biology, Greene Publishing Associates and Wiley Interscience, NY. In a preferred embodiment, ApaI and PinAI restriction enzymes are used. Preferably, the replication defective viral vector is the indicator gene viral vector (“IGVV”). In a preferred embodiment, the viral vector contains a means for detecting replication of the RTV. Preferably, the viral vector contains a luciferase expression cassette.
The assay can be performed by first co-transfecting host cells with RTV DNA and a plasmid that expresses the envelope proteins of another retrovirus, for example, amphotropic murine leukemia virus (MLV). Following transfection, viral particles can be harvested from the cell culture and used to infect fresh target cells in the presence of varying amounts of anti-viral drug(s). The completion of a single round of viral replication in the fresh target cells can be detected by the means for detecting replication contained in the vector. In a preferred embodiment, the completion of a single round of viral replication results in the production of luciferase. By monitoring the amount of, e.g., luciferase activity in the presence of the varying amounts of antiviral drug(s), a resistance curve can be constructed by plotting luciferase activity versus drug concentration. The susceptibility of an HIV, or population of HIV, can be determined by measuring the concentration of antiviral drug at which the luciferase activity detected is half-maximal. This number, the IC50, provides a standard and convenient measure of drug resistance.
Patient derived segment(s) corresponding to the HIV protease and reverse transcriptase coding regions were amplified by the reverse transcription polymerase chain reaction method (RT PCR) using viral RNA isolated from viral particles present in the plasma or serum of HIV infected individuals as follows. Viral RNA was isolated from the plasma or serum using oligo-dT magnetic beads (Dynal Biotech, Oslo, Norway), followed by washing and elution of viral RNA. The RT PCR protocol was divided into two steps. A retroviral reverse transcriptase (e.g. Moloney MuLV reverse transcriptase (Roche Molecular Systems, Inc., Branchburg, N.J.; Invitrogen, Carlsbad, Calif.), or avian myeloblastosis virus (AMV) reverse transcriptase, (Boehringer Mannheim, Indianapolis, Ind.) was used to copy viral RNA into cDNA. The cDNA was then amplified using a thermostable DNA polymerase (e.g. Taq (Roche Molecular Systems, Inc., Branchburg, N.J.), Tth (Roche Molecular Systems, Inc., Branchburg, N.J.), PRIMEZYME™ (isolated from Thermus brockianus, Biometra, Gottingen, Germany)) or a combination of thermostable polymerases as described for the performance of “long PCR” (Barnes, W.M., 1994, Proc. Natl. Acad. Sci, USA 91, 2216 20) (e.g. Expand High Fidelity PCR System (Taq+Pwo), (Boehringer Mannheim. Indianapolis, Ind.); GENEAMP XL™ PCR kit (Tth+Vent), (Roche Molecular Systems, Inc., Branchburg, N.J.); or […] II®, Clontech, Palo Alto, Calif.)

CC(C)CN(C[C@@H](O)[C@H](Cc1ccccc1)NC(=O)O[C@H]1CCOC1)S(=O)(=O)c1ccc(N)cc1 [APV, amprenavir]
Odds Ratio (mutation A71T in PR, increased susceptibility (Table 3)): 0.71
Odds Ratio (mutation D30N in PR, increased susceptibility (Table 3)): 0.16
Odds Ratio (mutation D425E in gag, reduced susceptibility (FC>2)): 1.59
Odds Ratio (mutation F463L in gag, reduced susceptibility (FC>2)): 1.57
Odds Ratio (mutation H441Y in gag, increased susceptibility (Table 3)): 0.67
Odds Ratio (mutation I15V in PR, reduced susceptibility (FC>2)): 1.60
Odds Ratio (mutation I50L in PR, increased susceptibility (Table 3)): 0.42
Odds Ratio (mutation I64L in PR, increased susceptibility (Table 3)): 0.58
Odds Ratio (mutation I64V in PR, increased susceptibility (Table 3)): 0.80
Odds Ratio (mutation I93L in PR, increased susceptibility (Table 3)): 0.89
Odds Ratio (mutation K43R in PR, increased susceptibility (Table 3)): 0.35
Odds Ratio (mutation K45R in PR, increased susceptibility (Table 3)): 0.32
Odds Ratio (mutation L63A in PR, increased susceptibility (Table 3)): 0.51
Odds Ratio (mutation L63Q in PR, increased susceptibility (Table 3)): 0.47
Odds Ratio (mutation L63S in PR, increased susceptibility (Table 3)): 0.53
Odds Ratio (mutation L89V in PR, reduced susceptibility (FC>2)): >>>
Odds Ratio (mutation L486S in gag, increased susceptibility (Table 3)): 0.48
Odds Ratio (mutation N88D in PR, increased susceptibility (Table 3)): 0.26
Odds Ratio (mutation N88S in PR, increased susceptibility (Table 3)): 0.07
Odds Ratio (mutation P453L in gag, reduced susceptibility (FC>2)): 1.58
Odds Ratio (mutation S451N in gag, increased susceptibility (Table 3)): 0.59
Odds Ratio (mutation S498L in gag, increased susceptibility (Table 3)): 0.53
Odds Ratio (mutation S499L in gag, increased susceptibility (Table 3)): 0.47
Odds Ratio (mutation V77I in PR, increased susceptibility (Table 3)): 0.60
